# Assay results reported in PubChem BioAssay AID686978 (National Center for Advancing Translational Sciences (NCATS), 2013).
# “And” between values parts separate entries of the source, which are not always exact repeats. Identical values can stand only once. Among all 420,000 compounds or so, about 64,000 (15%) were called active. This list was built around the results that the source calls inconclusive (neither active nor inactive); the mix of calls is not that of the screen. The call rests on the fitted dose curve; in most records, active means well fitted inhibition curve with a large enough effect; inconclusive means small, poorly fitted or top-dose-only effect; inactive means flat fitted curve, though single readings scatter. Potencies of inconclusive entries are left out as doubtful fits. Where a structure was tested more than once in an assay, its records may differ in their call.
# Assay: qHTS for Inhibitors of human tyrosyl-DNA phosphodiesterase 1 (TDP1): qHTS in cells in absence of CPT; further: nearly all actives have a fitted effect of over 55% in size
# Conditions: DT40 Tdp1-/- hTDP1 cells, no CPT, ATP luminescence, 48 h; activity change, negative = growth inhibition: at 46.2 µM (top of the series) unless noted
# Outline: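 DT40 Tdp1-/-;hTDP1 cells, no CPT (DMSO vehicle only), 400 cells/well; compounds pin-transferred; ≥48 hr, 37 °C; CellTiter-Glo 30 min RT dark, luminescence read.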
# On the % scale 0 is the no-effect control and ±100 the full control effect; potency means the concentration at half of the fitted maximal effect; tags describe the fitted curve by direction and shape.
Compound,Potency,"activity change, negative = growth inhibition"
COc1cc2c(cc1O)C[C@H]1c3c(cc(O)c(OC)c3-2)CCN1C,inactive,
COC(=O)[C@@H](Cc1ccccc1)N(Cc1ccccc1)S(=O)(=O)N(Cc1ccccc1)[C@H](Cc1ccccc1)C(=O)OC,active: 10 µM,
O=C(COc1ccccc1)c1cn(Cc2ccccc2)c2ccccc12,"inconclusive [inhibitor, single point]",
COc1ccc(CN2CCN(C(=O)COc3cccc(C)c3)CC2)c(OC)c1,"inconclusive [inhibitor, single point]",
COc1ccc2c(c1)CC[C@@H]1[C@@H]2CC[C@]2(C)[C@@H](NCCCCCCN3C(=O)C=CC3=O)CC[C@@H]12,active: 22.5 µM,
COC(=O)C1=C(c2ccc(OCc3ccccc3)cc2)C[C@@H]2CC[C@H]1N2C(=O)NCc1cccc(C(F)(F)F)c1,active: 20.6 µM,
O=C(O)C(Cc1cnc[nH]1)NS(=O)(=O)c1ccc(Br)cc1 (stereo not given),inactive,
NC(N)=N/N=C/c1cn(-c2ccccc2)nc1-c1cccs1,active: 10.3 µM,
O=C1NC(=O)N(Cc2ccco2)C(=O)/C1=C\c1ccc(-c2ccc(F)cc2)o1,"inconclusive [inhibitor, single point]",
COc1cc(C(c2c(C)[nH]n(-c3ccccc3)c2=O)c2c(C)[nH]n(-c3ccccc3)c2=O)cc(OC)c1OC,,inconclusive: -34.3% [inhibitor]
COc1cccc(CC(=O)N(C)C2CCCN(Cc3ccccc3F)C2)c1 (stereo not given),"inconclusive [inhibitor, single point]",
COc1ccc(C2CC(c3cccs3)=NN2c2nc(C)c(C(C)=O)s2)cc1OC (stereo not given),"inconclusive [inhibitor, single point]",
O=C(C(=C1N(Cc2ccc(Cl)nc2)CCN1Cc1ccc(Cl)nc1)[N+](=O)[O-])C(Cl)Cl,active: 16.4 µM,
CCCC[C@H](CN(N=O)[C@@H](Cc1ccccc1)CN(C)N=O)N(CCc1ccccc1)N=O,"inconclusive [inhibitor, single point]",
COc1cccc(C(c2nnnn2-c2ccc3c(c2)OCCO3)N2CCC3(CC2)C(=O)NCN3c2ccccc2)c1OC (stereo not given),active: 16.4 µM,
O=C1CCO1,inactive,
CCOC(=O)c1c(C)n(Cc2ccccc2)c2ccc(O)cc12,inactive,
O=C(CCCN1CCC(n2c(=O)[nH]c3ccccc32)CC1)c1ccc(F)cc1,"inconclusive [inhibitor, single point]",
C=CCn1c(O)c(C=NCCCOc2ccc(CC)cc2)c(=O)[nH]c1=S,"inconclusive [inhibitor, partial curve]",
COc1ccc(CCNCC(O)COc2cccc(C)c2)cc1OC (stereo not given),"inconclusive [inhibitor, single point]",
COc1cc(C(=O)N2Cc3ccccc3-n3nncc3C2)cc(OC)c1OC,inactive,
OC1(c2ccccc2)CCNC2CCCCC21 (stereo not given),"inconclusive [inhibitor, partial curve]",
C[N+]1([O-])CCC[C@@H]1c1cccnc1 (stereo not given in full),inactive,

Compound,Potency,"activity change, negative = growth inhibition"
CCN1C(=O)C(=Cc2ccc(C)s2)C(=O)N(CC)C1=S,"inconclusive [inhibitor, single point]",
CN1CCN(Cc2ccc3ccccc3c2)CC1,inactive,
N#CC(C#N)=NNc1ccc(-n2ccc(C(F)(F)F)n2)cc1,active: 1.64 µM,
O=C1NC(=O)N(c2cccc(Cl)c2)C(=O)/C1=C\c1ccc(Sc2nc3ccccc3[nH]2)o1,"inconclusive [inhibitor, single point]",
CCCCCCN=Cc1c(O)n(C)c(=O)n(C)c1=O,"inconclusive [inhibitor, single point]",
O=c1cc(CN2CC=C(c3ccccc3)CC2)c2c(ccc3ccccc32)o1,active: 20.6 µM,
C(=N\NC1=NCCCCC1)/c1c[nH]c2ccccc12,"inconclusive [inhibitor, single point]",
CCCCc1cc(=O)oc2cc(OCC(=O)N3C[C@H]4C[C@@H](C3)c3cccc(=O)n3C4)c(Cl)cc12,"inconclusive [inhibitor, single point]",
CCCNC(=O)Cn1cnc2sc(C(=O)N3CCC4(CC3)OCCO4)c(C)c2c1=O,inactive,
O=C(Nc1cccc(OC(=O)N2CCCCC2)c1)N1CCOCC1,active: 5.8 µM,
CC(=O)c1c(O)n(C)c(=S)n(-c2ccccc2)c1=O,inactive,
O=C1C2CCN(CC2)C1(CO)CO,active: 5.96 µM and active: 4.61 µM,
Cc1cc(O)c(CN2CC=C(c3ccccc3)CC2)cc1C(C)C,"inconclusive [inhibitor, single point]",
CCCSc1nc2ccccc2c(=O)n1-c1ccccc1OC,active: 20.6 µM,
COc1ccc(-n2c(CNCCc3ccc(C)cc3)nc3ccccc3c2=O)cc1,"inconclusive [inhibitor, single point]",
COc1ccc(C(CNC(=O)c2cc(S(=O)(=O)N3CCCCC3)ccc2C)N2CCCC2)cc1 (stereo not given),"inconclusive [inhibitor, partial curve, poor fit]",
CCCCNC(=O)c1cc(-c2cccnc2)nc2ccc(S(=O)(=O)NCCCC)cc12,"inconclusive [inhibitor, single point]",
Cc1cccc(N2C(=O)NC(=O)/C(=C\c3cc(C)n(-c4sc5c(c4C#N)CCCC5)c3C)C2=O)c1C,"inconclusive [inhibitor, single point]",
Cc1ccc(C)c(N2CCN(C(=O)CCS(=O)(=O)c3ccc4c(c3)oc(=O)n4C)CC2)c1,active: 14.6 µM,
COc1ccc(S(=O)(=O)Nc2ccccc2OC)cc1N=Nc1c(O)[nH]c(=S)[nH]c1=O,"inconclusive [inhibitor, single point]",
COC(=O)CSC1=NP(=S)(SCC(=O)OC)N2CCCC2=C1C#N (stereo not given),"inconclusive [inhibitor, partial curve]",
COc1ccc(C(=O)C2CN(C)CC2c2ccc(Cl)cc2)cc1 (stereo not given),"inconclusive [inhibitor, single point]",
